Results reported in the supplement of paper PMC4967469.
The IC50 comes from the fitted curve, where viability falls to half of the control; a fit beyond the top or the lowest dose is shown as a bound at that dose. AUC is the area under the same curve over the 256-fold range up to the top dose, as a fraction; it is 1 without any effect and falls as sensitivity rises. The top dose, if marked as inferred, comes from the curve model; the source does not state it.

Compound: CC1=C(C(=O)Nc2cc3cn[nH]c3cc2F)C(c2ccc(C(F)(F)F)cc2)CC(=O)N1 [GSK429286A]
Assay: Viability of human cancer cell lines after 72 h of drug (GDSC screen)
Conditions: top dose inferred
Method: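 Human cancer cell lines in 384-well plates, medium with 10% serum, drug for 72 h over a 256-fold dose range (nine 2-fold or five 4-fold steps up to the top dose). Adherent lines were fixed and stained with the nucleic acid dye Syto60, suspension lines read with resazurin; signal relative to control wells, capped at 0 and 100%. One two-parameter sigmoid per drug and line, fitted in a mixed model over all curves with the slope shared within a line.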

| Cell Line | AUC | IC50 |
| --- | --- | --- |
| NCI-H1623 (lung adenocarcinoma, adherent, top dose 20 µM) | 0.984 | > 20 µM |
| NCI-H1648 (lung adenocarcinoma, adherent, top dose 20 µM) | 0.985 | > 20 µM |
| NCI-H1651 (lung adenocarcinoma, adherent, top dose 20 µM) | 0.987 | > 20 µM |
| NCI-H1666 (lung adenocarcinoma, semi-adherent, top dose 20 µM) | 0.986 | > 20 µM |
| NCI-H1688 (small cell lung carcinoma, adherent, top dose 20 µM) | 0.985 | > 20 µM |
| NCI-H1693 (lung adenocarcinoma, adherent, top dose 20 µM) | 0.975 | > 20 µM |
| NCI-H1694 (small cell lung carcinoma, suspension, top dose 20 µM) | 0.985 | > 20 µM |
| NCI-H1703 (lung adenocarcinoma, adherent, top dose 20 µM) | 0.964 | > 20 µM |
| NCI-H1734 (lung adenocarcinoma, adherent, top dose 20 µM) | 0.967 | > 20 µM |
| NCI-H1755 (lung adenocarcinoma, adherent, top dose 20 µM) | 0.882 | > 20 µM |
| NCI-H1770 (non-small cell lung carcinoma, suspension, top dose 20 µM) | 0.991 | > 20 µM |
| NCI-H1781 (lung adenocarcinoma, adherent, top dose 20 µM) | 0.985 | > 20 µM |
| NCI-H1792 (lung adenocarcinoma, adherent, top dose 20 µM) | 0.939 | > 20 µM |
| NCI-H1793 (lung adenocarcinoma, adherent, top dose 20 µM) | 0.98 | > 20 µM |
| NCI-H1836 (small cell lung carcinoma, suspension, top dose 20 µM) | 0.977 | > 20 µM |
| NCI-H1838 (lung adenocarcinoma, adherent, top dose 20 µM) | 0.947 | > 20 µM |
| NCI-H1869 (lung squamous cell carcinoma, adherent, top dose 20 µM) | 0.98 | > 20 µM |
| NCI-H1876 (small cell lung carcinoma, adherent, top dose 20 µM) | 0.975 | > 20 µM |
| NCI-H1915 (large cell lung carcinoma, adherent, top dose 20 µM) | 0.965 | > 20 µM |
| NCI-H1944 (lung adenocarcinoma, adherent, top dose 20 µM) | 0.952 | > 20 µM |
| NCI-H1975 (lung adenocarcinoma, adherent, top dose 20 µM) | 0.926 | > 20 µM |
| NCI-H1993 (lung adenocarcinoma, adherent, top dose 20 µM) | 0.974 | > 20 µM |
| NCI-H2009 (lung adenocarcinoma, adherent, top dose 20 µM) | 0.987 | > 20 µM |
| NCI-H2023 (lung adenocarcinoma, adherent, top dose 20 µM) | 0.981 | > 20 µM |
| NCI-H2029 (small cell lung carcinoma, adherent, top dose 20 µM) | 0.992 | > 20 µM |

| Cell Line | AUC | IC50 |
| --- | --- | --- |
| NCI-H2030 (lung adenocarcinoma, adherent, top dose 20 µM) | 0.97 | > 20 µM |
| NCI-H2052 (mesothelioma, adherent, top dose 20 µM) | 0.979 | > 20 µM |
| NCI-H2081 (small cell lung carcinoma, suspension, top dose 20 µM) | 0.875 | > 20 µM |
| NCI-H2085 (lung adenocarcinoma, adherent, top dose 20 µM) | 0.974 | > 20 µM |
| NCI-H2087 (lung adenocarcinoma, semi-adherent, top dose 20 µM) | 0.983 | > 20 µM |
| NCI-H2110 (non-small cell lung carcinoma, adherent, top dose 20 µM) | 0.97 | > 20 µM |
| NCI-H2122 (lung adenocarcinoma, adherent, top dose 20 µM) | 0.981 | > 20 µM |
| NCI-H2135 (non-small cell lung carcinoma, adherent, top dose 20 µM) | 0.99 | > 20 µM |
| NCI-H2141 (small cell lung carcinoma, suspension, top dose 20 µM) | 0.968 | > 20 µM |
| NCI-H2170 (lung squamous cell carcinoma, adherent, top dose 20 µM) | 0.983 | > 20 µM |
| NCI-H2171 (small cell lung carcinoma, suspension, top dose 20 µM) | 0.97 | > 20 µM |
| NCI-H2172 (non-small cell lung carcinoma, adherent, top dose 20 µM) | 0.969 | > 20 µM |
| NCI-H2196 (small cell lung carcinoma, adherent, top dose 20 µM) | 0.987 | > 20 µM |
| NCI-H2227 (small cell lung carcinoma, semi-adherent, top dose 20 µM) | 0.718 | 5.69 µM |
| NCI-H2228 (lung adenocarcinoma, adherent, top dose 20 µM) | 0.954 | > 20 µM |
| NCI-H2291 (lung adenocarcinoma, adherent, top dose 20 µM) | 0.981 | > 20 µM |
| NCI-H2342 (lung adenocarcinoma, adherent, top dose 20 µM) | 0.983 | > 20 µM |
| NCI-H2347 (lung adenocarcinoma, adherent, top dose 20 µM) | 0.983 | > 20 µM |
| NCI-H2405 (lung adenocarcinoma, adherent, top dose 20 µM) | 0.933 | > 20 µM |
| NCI-H2444 (non-small cell lung carcinoma, adherent, top dose 20 µM) | 0.982 | > 20 µM |
| NCI-H2452 (mesothelioma, adherent, top dose 20 µM) | 0.984 | > 20 µM |
| NCI-H3122 (lung adenocarcinoma, adherent, top dose 20 µM) | 0.983 | > 20 µM |
| NCI-SNU-1 (stomach, suspension, top dose 20 µM) | 0.931 | > 20 µM |
| NCI-SNU-5 (stomach, suspension, top dose 20 µM) | 0.988 | > 20 µM |
| NCI-SNU-16 (stomach, suspension, top dose 20 µM) | 0.991 | > 20 µM |

| Cell Line | AUC | IC50 |
| --- | --- | --- |
| NEC8 (testis, adherent, top dose 20 µM) | 0.988 | > 20 µM |
| NH-12 (neuroblastoma, adherent, top dose 20 µM) | 0.915 | > 20 µM |
| NK-92MI (lymphoid neoplasm, suspension, top dose 20 µM) | 0.874 | 17.2 µM |
| NKM-1 (acute myeloid leukaemia, suspension, top dose 20 µM) | 0.956 | > 20 µM |
| NMC-G1 (glioma, adherent, top dose 20 µM) | 0.981 | > 20 µM |
| NOMO-1 (acute myeloid leukaemia, suspension, top dose 20 µM) | 0.929 | > 20 µM |
| NOS-1 (osteosarcoma, adherent, top dose 20 µM) | 0.98 | > 20 µM |
| NTERA-2 cl.D1 (testis, adherent, top dose 20 µM) | 0.948 | > 20 µM |
| NU-DUL-1 (B-cell lymphoma, suspension, top dose 20 µM) | 0.957 | > 20 µM |
| NUGC-3 (stomach, adherent, top dose 20 µM) | 0.98 | > 20 µM |
| NUGC-4 (stomach, adherent, top dose 20 µM) | 0.987 | > 20 µM |
| NY (osteosarcoma, adherent, top dose 20 µM) | 0.987 | > 20 µM |
| OACM5-1 (oesophagus, semi-adherent, top dose 20 µM) | 0.92 | > 20 µM |
| OACp4C (oesophagus, adherent, top dose 20 µM) | 0.87 | > 20 µM |
| OAW-28 (ovary, adherent, top dose 20 µM) | 0.983 | > 20 µM |
| OAW-42 (ovary, adherent, top dose 20 µM) | 0.98 | > 20 µM |
| OC-314 (ovary, adherent, top dose 20 µM) | 0.963 | > 20 µM |
| OCI-AML2 (acute myeloid leukaemia, suspension, top dose 20 µM) | 0.96 | > 20 µM |
| OCI-AML3 (acute myeloid leukaemia, suspension, top dose 20 µM) | 0.915 | > 20 µM |
| OCI-AML5 (acute myeloid leukaemia, suspension, top dose 20 µM) | 0.891 | 19.9 µM |
| OCI-LY-19 (B-cell lymphoma, suspension, top dose 20 µM) | 0.975 | > 20 µM |
| OCI-M1 (acute myeloid leukaemia, suspension, top dose 20 µM) | 0.886 | 13.1 µM |
| OCUB-M (breast, adherent, top dose 20 µM) | 0.945 | > 20 µM |
| OCUM-1 (stomach, adherent, top dose 20 µM) | 0.986 | > 20 µM |
